Where a name gives a salt, the structure may show the parent alone. Viability of KB3-1 and Nalm-6 cells after 48 h of drug alone (CellTiter-Glo), 11 doses over about 4.5 log units. % of DMSO wells, lower = more cell loss; AC50 from the fitted curve, lower = more potent. No active / inactive call. Nalm-6 was screened in two runs. AC50 is listed only for well-fitted inhibitory curves. KB3-1 is a HeLa-derived carcinoma line, Nalm-6 a B-cell precursor leukaemia line.
Assays:
KB3-1 = experiment: viability (% of DMSO control); higher = more viable cells
Procedure: (§1)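 Eleven-dose screen of the NCATS MIPE 3 library on cells without co-treatment; CellTiter-Glo after 48 h, as % of DMSO wells.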

Nalm-6 = experiment: as above
Procedure: as §1

SMILES	viability (KB3-1; 0.00078 µM) [%]	viability (KB3-1; 0.00234 µM) [%]	viability (KB3-1; 0.00702 µM) [%]	viability (KB3-1; 0.0211 µM) [%]	viability (KB3-1; 0.0632 µM) [%]	viability (KB3-1; 0.19 µM) [%]	viability (KB3-1; 0.569 µM) [%]	viability (KB3-1; 1.71 µM) [%]	viability (KB3-1; 5.12 µM) [%]	viability (KB3-1; 15.4 µM) [%]	viability (KB3-1; 46.1 µM) [%]	viability (Nalm-6; run: 1, 0.00078 µM) [%]	viability (Nalm-6; run: 1, 0.00234 µM) [%]	viability (Nalm-6; run: 1, 0.00702 µM) [%]	viability (Nalm-6; run: 1, 0.0211 µM) [%]	viability (Nalm-6; run: 1, 0.0632 µM) [%]	viability (Nalm-6; run: 1, 0.19 µM) [%]	viability (Nalm-6; run: 1, 0.569 µM) [%]	viability (Nalm-6; run: 1, 1.71 µM) [%]	viability (Nalm-6; run: 1, 5.12 µM) [%]	viability (Nalm-6; run: 1, 15.4 µM) [%]	viability (Nalm-6; run: 1, 46.1 µM) [%]	viability (Nalm-6; run: 2, 0.00078 µM) [%]	viability (Nalm-6; run: 2, 0.00234 µM) [%]	viability (Nalm-6; run: 2, 0.00702 µM) [%]	viability (Nalm-6; run: 2, 0.0211 µM) [%]	viability (Nalm-6; run: 2, 0.0632 µM) [%]	viability (Nalm-6; run: 2, 0.19 µM) [%]	viability (Nalm-6; run: 2, 0.569 µM) [%]	viability (Nalm-6; run: 2, 1.71 µM) [%]	viability (Nalm-6; run: 2, 5.12 µM) [%]	viability (Nalm-6; run: 2, 15.4 µM) [%]	viability (Nalm-6; run: 2, 46.1 µM) [%]
Cc1c(CCOc2ccc(C(=O)O)cc2)c2cc(Cl)ccc2n1C(c1ccccc1)c1ccccc1 [CDIBA]	100	104	101	103	107	106	103	107	101	101	61.5	120	120	116	115	125	125	121	121	107	126	32.1	110	110	111	105	109	105	106	105	110	110	23.3
Clc1ccc(-c2nc3sccn3c2/C=N/OCc2ccc(Cl)c(Cl)c2)cc1 [CITCO]	99.5	97.3	104	98.3	103	100	93.3	103	88.3	91.9	97.3	-1.26	-0.966	-0.373	2.83	10.4	38.7	65.5	66.3	80.1	84.2	47.2	107	116	113	112	110	108	105	107	99.7	105	71.4
CCN(CC)CCn1c(=O)c(Cc2ccc(OC)cc2)nc2ccccc21 [Caroverine hydrochloride]	107	104	106	108	108	107	97.1	102	98.4	103	91.7	121	134	108	123	121	115	116	119	107	109	91.2	105	109	105	110	108	104	104	104	103	103	87.2
O=P1(N(CCCl)CCCl)NCCCO1 (stereo not drawn) [Cyclophosphamide]	101	105	105	106	106	106	105	100	106	101	102	98.4	103	115	104	108	115	116	106	105	106	114	108	102	110	106	98.3	106	102	99.5	101	100	102
CCOc1ccc(Cc2cc([C@@H]3O[C@H](CO)[C@@H](O)[C@H](O)[C@H]3O)ccc2Cl)cc1 [Dapagliflozin]	103	106	112	106	111	104	112	106	110	104	95.2	130	129	130	134	140	124	136	127	128	117	105	111	109	108	115	107	98.4	28.2	106	26.9	-0.194	16
O=C(/C=C/c1cccnc1)NCCCCC1CCN(C(=O)c2ccccc2)CC1 [Daporinad]	96.2	98.6	103	99.8	103	98.7	97.7	97.8	95.1	93.3	80.5	121	110	112	124	114	124	123	102	96.2	108	84.2	6.69	6.69	6.8	6.79	6.73	6.6	6.76	6.48	5.94	5.1	3.48
CC(=O)O[C@@]12CO[C@@H]1C[C@H](O)[C@]3(C)[C@@H]2[C@H](OC(=O)C4=CC=CC=C4)[C@]5(O)C[C@H](OC(=O)[C@H](O)[C@@H](NC(=O)OC(C)(C)C)C6=CC=CC=C6)C(=C([C@@H](O)C3=O)/C5(C)C)\C [Docetaxel]	27.5	26	22.9	25.9	21.5	23.2	20.6	20	21.5	22.6	15.1	35.5	19.8	14.5	13.9	12.4	14.4	18.5	22.8	25.5	26.7	20.4	30.3	19.8	12	11.2	9.95	11.2	12	14	16.1	17.6	7.56
CCOC(=O)C/1=C(O)/C(=O)N(CC2=CC=CC=C2)C1 [EBPC]	103	109	110	103	109	111	109	111	105	102	16.6	130	136	119	128	128	132	132	127	132	130	111	103	110	110	110	112	106	108	53.8	100	30.4	63
NC(=O)C1CCCc2c1[nH]c1ccc(Cl)cc21 (stereo not drawn) [EX-527]	108	106	104	103	109	106	104	104	105	104	64.6	114	113	109	117	113	122	117	114	115	108	90.6	101	103	100	99	107	107	104	93.9	94.9	104	95.3
CN(NC(=O)CC(=O)NN(C)C(=S)c1ccccc1)C(=S)c1ccccc1 [Elesclomol]	105	109	101	100	98	108	103	101	102	98.6	101	102	84.1	73.1	84.4	86.5	91.6	90	89.4	96.6	97.7	75.6	112	80.4	61	74.5	86.1	99.7	111	105	106	101	65
O=C1C(CCC(O)c2ccc(F)cc2)C(c2ccc(O)cc2)N1c1ccc(F)cc1 (stereo not drawn) [Ezetimibe]	109	104	108	112	109	107	110	110	103	109	98.8	114	130	124	125	120	117	113	115	112	116	73.3	110	104	104	110	109	101	107	98.6	108	108	96.7

— the supplement of paper PMC4996465
